# B1: hOGG1 K249Q (enzyme)
# chain: not shown
# notes: human oxoguanine glycosylase 1 (hOGG1) in pETM14, single amino acid mutant made from the wildtype gene by PCR; also called catalytically dead hOGG1_(K249Q) variant; source: E. coli BL21(DE3), purified (Ni-NTA, MonoQ anion exchange, Superdex 200 SEC)
# B2: hOGG1 C253A (enzyme)
# chain: not shown
# notes: human oxoguanine glycosylase 1 (hOGG1) in pETM14, single amino acid mutant made from the wildtype gene by PCR; source: E. coli BL21(DE3), purified (Ni-NTA, MonoQ anion exchange, Superdex 200 SEC); not shown: His6, N-terminal, kept
# B3: hOGG1 C241A (enzyme)
# chain: not shown
# notes: as for B2
# How the values were obtained:
# [1] = biological target: the molecule itself; assay: AFM imaging, volume analysis; pre-oxidised hOGG1 (wildtype or mutant, 150 nM) alone with 505 bp oxoG DNA (3 nM), AFM buffer (25 mM HEPES pH 7.5, 25 mM NaCl, 10 mM MgCl2) without DTT; volumes of DNA-bound complexes
# [2] = biological target: the molecule itself; assay: non-reducing SDS-PAGE with anti-His Western blot; 8 uM purified hOGG1 wildtype or cysteine mutant, oxidised (pre-oxidised with 5 uM H2O2); non-reducing 15% SDS-PAGE, mouse anti-His antibody
protein,measurement,setting,value
B1,stoichiometry N,[1],2
B2,binding result,[2],binds
B3,binding result,[2],binds
